In paper PMC3468502:
No constants are given. Whether binding was seen depends on the method and setting. For some of these results: In cells and extracts the contact can be indirect. Some results given as binding are weak or reduced against the parent protein; the word gives no strength.

Chains of the proteins cited; added tags and fusions are not shown.
UniProt Q9H165: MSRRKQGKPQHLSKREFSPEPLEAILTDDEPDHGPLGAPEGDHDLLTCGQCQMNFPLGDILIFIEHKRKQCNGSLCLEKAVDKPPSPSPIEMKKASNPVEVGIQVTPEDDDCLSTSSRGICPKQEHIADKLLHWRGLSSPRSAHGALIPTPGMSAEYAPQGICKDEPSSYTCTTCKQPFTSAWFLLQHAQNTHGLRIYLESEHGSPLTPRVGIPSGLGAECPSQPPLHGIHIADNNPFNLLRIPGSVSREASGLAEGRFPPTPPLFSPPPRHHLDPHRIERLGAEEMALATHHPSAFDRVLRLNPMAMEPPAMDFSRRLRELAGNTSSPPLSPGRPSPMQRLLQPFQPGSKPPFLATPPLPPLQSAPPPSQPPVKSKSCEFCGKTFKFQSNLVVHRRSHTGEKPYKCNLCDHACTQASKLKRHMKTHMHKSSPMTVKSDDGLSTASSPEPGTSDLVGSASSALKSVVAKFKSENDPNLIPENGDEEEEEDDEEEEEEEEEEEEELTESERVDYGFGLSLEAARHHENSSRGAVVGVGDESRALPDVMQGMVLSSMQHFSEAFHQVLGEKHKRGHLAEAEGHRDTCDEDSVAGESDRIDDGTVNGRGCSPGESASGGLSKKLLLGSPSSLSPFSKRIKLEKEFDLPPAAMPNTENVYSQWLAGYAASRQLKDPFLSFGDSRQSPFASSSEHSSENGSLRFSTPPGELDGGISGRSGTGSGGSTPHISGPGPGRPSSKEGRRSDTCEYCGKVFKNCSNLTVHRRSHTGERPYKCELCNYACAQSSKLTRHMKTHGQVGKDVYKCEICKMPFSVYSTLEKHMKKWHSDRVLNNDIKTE
UniProt P23769: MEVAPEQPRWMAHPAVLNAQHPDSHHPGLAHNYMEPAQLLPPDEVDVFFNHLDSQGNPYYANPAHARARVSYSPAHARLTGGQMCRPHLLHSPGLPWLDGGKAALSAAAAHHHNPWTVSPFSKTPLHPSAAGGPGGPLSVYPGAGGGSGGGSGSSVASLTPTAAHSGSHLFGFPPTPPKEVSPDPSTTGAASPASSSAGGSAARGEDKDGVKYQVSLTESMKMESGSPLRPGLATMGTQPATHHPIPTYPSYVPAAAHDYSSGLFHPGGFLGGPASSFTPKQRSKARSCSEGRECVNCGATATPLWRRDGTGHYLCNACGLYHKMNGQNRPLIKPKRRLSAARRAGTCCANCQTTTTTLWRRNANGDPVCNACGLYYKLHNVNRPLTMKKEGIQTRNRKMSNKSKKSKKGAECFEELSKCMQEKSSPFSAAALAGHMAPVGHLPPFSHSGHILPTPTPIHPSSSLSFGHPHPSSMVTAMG
UniProt P23511: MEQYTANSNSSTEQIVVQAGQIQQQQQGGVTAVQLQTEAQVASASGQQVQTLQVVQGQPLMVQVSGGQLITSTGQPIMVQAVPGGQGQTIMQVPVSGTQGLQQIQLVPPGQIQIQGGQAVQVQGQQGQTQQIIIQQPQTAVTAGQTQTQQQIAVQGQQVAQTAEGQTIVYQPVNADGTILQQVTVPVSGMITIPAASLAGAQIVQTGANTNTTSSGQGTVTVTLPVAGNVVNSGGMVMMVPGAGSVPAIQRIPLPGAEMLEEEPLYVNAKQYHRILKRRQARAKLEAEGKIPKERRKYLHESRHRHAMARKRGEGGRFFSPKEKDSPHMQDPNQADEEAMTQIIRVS
UniProt P15976: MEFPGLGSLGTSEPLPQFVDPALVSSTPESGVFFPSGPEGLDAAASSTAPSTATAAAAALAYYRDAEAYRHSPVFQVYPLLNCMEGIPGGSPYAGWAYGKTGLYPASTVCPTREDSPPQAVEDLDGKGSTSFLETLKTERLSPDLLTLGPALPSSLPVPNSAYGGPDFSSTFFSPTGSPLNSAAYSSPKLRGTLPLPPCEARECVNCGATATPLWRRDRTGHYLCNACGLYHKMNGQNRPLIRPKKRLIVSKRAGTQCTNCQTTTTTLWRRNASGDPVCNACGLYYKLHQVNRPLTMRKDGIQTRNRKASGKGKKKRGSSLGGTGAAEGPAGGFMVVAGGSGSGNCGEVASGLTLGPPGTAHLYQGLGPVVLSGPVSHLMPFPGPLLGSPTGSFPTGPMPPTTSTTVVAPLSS
UniProt Q13547: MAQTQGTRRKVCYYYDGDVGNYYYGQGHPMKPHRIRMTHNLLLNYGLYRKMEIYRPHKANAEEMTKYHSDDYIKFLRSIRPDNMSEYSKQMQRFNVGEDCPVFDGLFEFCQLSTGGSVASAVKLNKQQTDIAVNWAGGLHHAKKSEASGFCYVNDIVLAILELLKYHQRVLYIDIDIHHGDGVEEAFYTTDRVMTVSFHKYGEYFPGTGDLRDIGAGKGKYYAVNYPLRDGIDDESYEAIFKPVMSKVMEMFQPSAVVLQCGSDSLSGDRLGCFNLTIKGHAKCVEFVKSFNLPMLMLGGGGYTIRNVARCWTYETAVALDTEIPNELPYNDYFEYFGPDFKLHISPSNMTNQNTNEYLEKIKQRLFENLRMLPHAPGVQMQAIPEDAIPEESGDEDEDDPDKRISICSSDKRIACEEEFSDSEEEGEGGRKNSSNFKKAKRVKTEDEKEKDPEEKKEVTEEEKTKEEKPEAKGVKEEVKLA
UniProt Q92793: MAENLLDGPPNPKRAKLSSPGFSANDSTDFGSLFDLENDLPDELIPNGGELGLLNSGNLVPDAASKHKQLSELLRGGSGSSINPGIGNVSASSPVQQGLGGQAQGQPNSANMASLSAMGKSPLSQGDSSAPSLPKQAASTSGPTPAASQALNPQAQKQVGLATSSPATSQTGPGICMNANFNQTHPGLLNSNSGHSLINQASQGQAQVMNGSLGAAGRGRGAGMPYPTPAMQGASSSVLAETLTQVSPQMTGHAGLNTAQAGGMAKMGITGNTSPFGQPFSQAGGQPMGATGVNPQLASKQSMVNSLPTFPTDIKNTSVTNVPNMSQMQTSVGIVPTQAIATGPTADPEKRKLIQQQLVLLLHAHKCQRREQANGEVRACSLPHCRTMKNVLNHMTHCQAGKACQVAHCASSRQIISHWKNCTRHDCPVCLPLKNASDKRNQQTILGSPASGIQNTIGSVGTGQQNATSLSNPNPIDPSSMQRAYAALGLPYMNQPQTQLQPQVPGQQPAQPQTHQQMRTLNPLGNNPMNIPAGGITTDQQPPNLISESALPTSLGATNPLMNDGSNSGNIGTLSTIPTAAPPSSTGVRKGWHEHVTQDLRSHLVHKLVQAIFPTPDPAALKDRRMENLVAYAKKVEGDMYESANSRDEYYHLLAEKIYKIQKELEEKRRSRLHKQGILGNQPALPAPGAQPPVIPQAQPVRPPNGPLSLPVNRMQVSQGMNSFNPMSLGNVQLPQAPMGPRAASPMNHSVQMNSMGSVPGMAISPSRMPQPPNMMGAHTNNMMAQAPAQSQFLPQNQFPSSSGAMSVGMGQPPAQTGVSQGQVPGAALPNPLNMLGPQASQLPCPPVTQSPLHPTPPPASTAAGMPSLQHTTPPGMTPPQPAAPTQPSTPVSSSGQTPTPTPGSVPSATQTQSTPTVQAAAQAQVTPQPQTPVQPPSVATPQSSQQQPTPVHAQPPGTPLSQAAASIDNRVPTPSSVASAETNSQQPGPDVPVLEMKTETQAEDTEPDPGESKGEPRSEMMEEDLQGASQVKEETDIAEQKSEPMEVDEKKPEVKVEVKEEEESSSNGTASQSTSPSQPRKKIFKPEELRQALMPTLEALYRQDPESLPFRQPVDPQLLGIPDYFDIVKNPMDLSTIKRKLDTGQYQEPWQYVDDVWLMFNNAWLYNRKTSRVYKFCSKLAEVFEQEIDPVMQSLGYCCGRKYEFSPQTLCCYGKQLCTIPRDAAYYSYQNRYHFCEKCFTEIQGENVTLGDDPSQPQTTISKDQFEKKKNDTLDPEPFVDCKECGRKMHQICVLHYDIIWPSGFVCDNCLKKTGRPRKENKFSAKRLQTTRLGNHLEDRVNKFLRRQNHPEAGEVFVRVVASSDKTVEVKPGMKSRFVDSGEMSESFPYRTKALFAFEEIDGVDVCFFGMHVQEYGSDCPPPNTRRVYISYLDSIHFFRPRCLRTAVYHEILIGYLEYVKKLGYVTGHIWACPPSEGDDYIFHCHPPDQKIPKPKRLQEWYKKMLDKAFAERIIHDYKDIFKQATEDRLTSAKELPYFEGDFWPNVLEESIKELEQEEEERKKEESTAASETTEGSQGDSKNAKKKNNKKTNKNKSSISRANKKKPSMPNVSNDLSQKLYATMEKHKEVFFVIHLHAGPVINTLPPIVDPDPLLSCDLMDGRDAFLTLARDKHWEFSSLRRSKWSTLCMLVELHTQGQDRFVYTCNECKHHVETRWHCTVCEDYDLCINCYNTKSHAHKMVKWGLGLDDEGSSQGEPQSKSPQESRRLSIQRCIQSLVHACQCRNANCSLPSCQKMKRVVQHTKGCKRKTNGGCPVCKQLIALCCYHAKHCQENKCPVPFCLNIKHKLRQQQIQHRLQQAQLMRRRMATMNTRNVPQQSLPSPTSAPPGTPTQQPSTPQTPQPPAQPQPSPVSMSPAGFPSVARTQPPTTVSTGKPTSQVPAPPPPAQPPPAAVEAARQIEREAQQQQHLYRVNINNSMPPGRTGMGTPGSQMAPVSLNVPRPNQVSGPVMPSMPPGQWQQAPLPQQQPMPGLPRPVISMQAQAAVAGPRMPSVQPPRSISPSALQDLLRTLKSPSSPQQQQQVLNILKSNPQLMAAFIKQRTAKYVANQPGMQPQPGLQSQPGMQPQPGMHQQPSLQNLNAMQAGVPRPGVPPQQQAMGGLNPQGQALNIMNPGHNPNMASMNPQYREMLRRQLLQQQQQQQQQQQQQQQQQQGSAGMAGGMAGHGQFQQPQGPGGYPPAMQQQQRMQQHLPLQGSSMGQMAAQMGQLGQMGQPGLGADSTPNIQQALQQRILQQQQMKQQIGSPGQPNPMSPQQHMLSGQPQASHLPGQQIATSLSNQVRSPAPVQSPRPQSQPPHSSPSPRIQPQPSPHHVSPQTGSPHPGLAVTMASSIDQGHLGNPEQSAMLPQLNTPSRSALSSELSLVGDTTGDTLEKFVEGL
UniProt P20226: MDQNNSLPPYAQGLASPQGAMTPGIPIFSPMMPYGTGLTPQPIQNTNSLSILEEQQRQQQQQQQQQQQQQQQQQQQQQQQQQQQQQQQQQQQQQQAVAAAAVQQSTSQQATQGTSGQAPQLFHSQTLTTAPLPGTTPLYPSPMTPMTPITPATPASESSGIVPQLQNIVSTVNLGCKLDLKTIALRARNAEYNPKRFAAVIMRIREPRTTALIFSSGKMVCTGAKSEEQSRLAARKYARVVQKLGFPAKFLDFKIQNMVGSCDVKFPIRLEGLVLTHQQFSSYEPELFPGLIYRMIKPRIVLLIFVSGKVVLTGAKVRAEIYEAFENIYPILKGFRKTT

How the values were obtained:
[1] = molecular target: tagged BCL11A-XL expressed from a plasmid transfected into K562 cells (UniProt Q9H165); assay: co-IP; in vivo co-IP: NF-YA, GATA-2, GATA-1 and BCL-XL expressed with different tags from plasmids separately transfected into K562 cells; pulled down by antibodies to the tags; associated proteins detected by Western blot
[2] = molecular target: tagged GATA-2 expressed from a plasmid transfected into K562 cells (UniProt P23769); assay: as above
[3] = molecular target: tagged NF-YA expressed from a plasmid transfected into K562 cells (UniProt P23511); assay: as above
[4] = molecular target: tagged BCL11A isolated from transfected cells for the in vitro co-IP (UniProt Q9H165); assay: co-IP; in vitro co-IP of individual pairs of differently tagged proteins expressed in and isolated from K562 and/or 293 cells; both purified

| binding [1] | binding [2] | binding [3] | binding [4] | Substance |
| --- | --- | --- | --- | --- |
|  | binds |  |  | GATA-1 of K562 cells (from UniProt P15976 1-413) |
|  |  | binds |  | GATA-2 of K562 cells (from UniProt P23769 1-480) |
| binds |  | no binding |  | HDAC1 of K562 cells (from UniProt Q13547 1-482) |
|  |  |  | binds | tagged GATA-1 isolated from transfected cells for the in vitro co-IP (from UniProt P15976 1-413) |

The next lines start with the substance.

| Substance | binding [1] | binding [2] | binding [3] | binding [4] |
| --- | --- | --- | --- | --- |
| CBP of K562 cells (from UniProt Q92793 1-2442) | no binding | binds | binds |  |
| TBP of K562 cells (from UniProt P20226 1-339) |  | binds | binds |  |
